The other results are listed elsewhere or left out. Bounds are passed on as bounds.

These results are taken from a collection of fitness landscapes (doi:10.1126/science.1257360).

B1: PhoQ; a variant is named by its letters at X, in order, P23837 (parent)
chain: MKKLLRLFFPLSLRVRFLLATAAVVLVLSLAYGMVALIGYSVSFDKTTFRLLRGESNLFYTLAKWENNKLHVELPENIDKQSPTMTLIYDENGQLLWAQRDVPWLMKMIQPDWLKSNGFHEIEADVNDTSLLLSGDHSIQQQLQEVREDDDDAEMTHSVAVNVYPATSRMPKLTIVVVDTIPVELKSSYMVWSWFIYVLSANLLLVIPLLWVAAWWSLRPIEALAKEVRELEEHNRELLNPATTRELTSLVRNLNRLLKSERERYDKYRTTLTDLTHSLKTPLXXLQXXLRSLRSEKMSVSDAEPVMLEQISRISQQIGYYLHRASMRGGTLLSRELHPVAPLLDNLTSALNKVYQRKGVNISLDISPEISFVGEQNDFVEVMGNVLDNACKYCLEFVEISARQTDEHLYIVVEDDGPGIPLSKREVIFDRGQRVDTLRPGQGVGLAVAREITEQYEGKIVAGESMLGGARMEVIFGRQHSAPKDE

This assay covers variants of B1. The assay can be described thus: enrichment ratio after two sorts for PhoP signalling (ratio (wild type AVST 3.29)); higher = more functional. The note with it: with PhoP (E. coli).
On to DRYI, for which the enrichment ratio is at most 0.25.

In the case of FKYW, the enrichment ratio was at most 0.25.

As for YWFY, the enrichment ratio was at most 0.25.

Turning to DSIG, the enrichment ratio was at most 0.25.

For YQQH, the enrichment ratio was at most 0.25.

Consider GWGH, for which the enrichment ratio is at most 0.25.

LIDD: the enrichment ratio is at most 0.25.

As to FTYY, the enrichment ratio was at most 0.25.

Turning to NMPT, the enrichment ratio is at most 0.25.

PQKM: the enrichment ratio is at most 0.25.

With QDWM, the enrichment ratio is at most 0.25.

For ISSY, the enrichment ratio is at most 0.25.

For the variant MDIG, the enrichment ratio is at most 0.25.

GKRM: the enrichment ratio was at most 0.25.

Take GIGC: the enrichment ratio worked out at 1.69.

As to ELLL, the enrichment ratio is 2.43.

As to IKMM, the enrichment ratio is at most 0.25.

As to DHGW, the enrichment ratio is at most 0.25.

ELVH: the enrichment ratio was at most 0.25.

With SKIL, the enrichment ratio was found to be 2.84.

As for FPPP, the enrichment ratio was at most 0.25.

Turning to SKVI, the enrichment ratio was found to be 9.59.

In the case of GASC, the enrichment ratio was at most 0.25.

On to DSGH, for which the enrichment ratio is at most 0.25.

Consider EKHP, for which the enrichment ratio was at most 0.25.

Consider PGLE, for which the enrichment ratio was at most 0.25.

For ANVE, the enrichment ratio is at most 0.25.

Consider FQNF, for which the enrichment ratio is at most 0.25.

Consider TQSD, for which the enrichment ratio was determined as 7.88.

Regarding CLNL, the enrichment ratio is at most 0.25.

Consider VHIY, for which the enrichment ratio is at most 0.25.

Regarding TDTN, the enrichment ratio is at most 0.25.

Consider PIHN, for which the enrichment ratio is at most 0.25.

On to WYNS, for which the enrichment ratio is at most 0.25.

In the case of YSGL, the enrichment ratio is at most 0.25.

WPIN: the enrichment ratio is at most 0.25.

For the variant ATEN, the enrichment ratio was at most 0.25.

NPVL: the enrichment ratio is at most 0.25.

For SYRH, the enrichment ratio was at most 0.25.

In the case of NACP, the enrichment ratio is at most 0.25.

For the variant YYMI, the enrichment ratio is at most 0.25.

Consider FRKD, for which the enrichment ratio was at most 0.25.

Take GPGW: the enrichment ratio is at most 0.25.

As to FTFD, the enrichment ratio is at most 0.25.

Consider GNGF, for which the enrichment ratio is at most 0.25.

For QHLT, the enrichment ratio is at most 0.25.

Consider IHLD, for which the enrichment ratio is at most 0.25.

As for VCFC, the enrichment ratio is at most 0.25.

Regarding KLGS, the enrichment ratio was at most 0.25.

As for NGRN, the enrichment ratio was at most 0.25.

As to MYNM, the enrichment ratio is at most 0.25.

As for WAIL, the enrichment ratio was at most 0.25.

In the case of KSQR, the enrichment ratio is at most 0.25.

Consider GTSP, for which the enrichment ratio was at most 0.25.

Regarding GDIC, the enrichment ratio was 3.68.

As for AAMR, the enrichment ratio is at most 0.25.

Consider PPLQ, for which the enrichment ratio was at most 0.25.

In the case of TMNA, the enrichment ratio worked out at 24.8.

On to LHQT, for which the enrichment ratio is at most 0.25.

On to PKMD, for which the enrichment ratio is at most 0.25.

With IPHE, the enrichment ratio was at most 0.25.

For FYKF, the enrichment ratio is at most 0.25.

For GMKF, the enrichment ratio stood at 0.412.

On to LFMT, for which the enrichment ratio was at most 0.25.

Consider MPFI, for which the enrichment ratio was at most 0.25.

For the variant YYIG, the enrichment ratio is at most 0.25.

In the case of EFVK, the enrichment ratio was at most 0.25.

Take GGFE: the enrichment ratio is at most 0.25.

As for QFTE, the enrichment ratio is at most 0.25.

As to KFTW, the enrichment ratio is at most 0.25.

IFEA: the enrichment ratio is at most 0.25.

With HDWT, the enrichment ratio was at most 0.25.

On to KTTR, for which the enrichment ratio is at most 0.25.

For the variant ESDD, the enrichment ratio is at most 0.25.

As to YERY, the enrichment ratio is at most 0.25.

For HQGW, the enrichment ratio is at most 0.25.

Turning to QGWF, the enrichment ratio was determined as 18.8.

Take LGHT: the enrichment ratio is at most 0.25.

For SCCQ, the enrichment ratio was 13.2.

For the variant AVAG, the enrichment ratio amounted to 4.16.

For the variant APVM, the enrichment ratio was at most 0.25.

In the case of TVYD, the enrichment ratio was at most 0.25.

As to QLTW, the enrichment ratio was at most 0.25.

As to VFTK, the enrichment ratio is at most 0.25.

On to GYHE, for which the enrichment ratio was at most 0.25.

For the variant WPTI, the enrichment ratio was at most 0.25.

Turning to ECTG, the enrichment ratio was at most 0.25.

On to RNVG, for which the enrichment ratio was at most 0.25.

Take SWDT: the enrichment ratio was at most 0.25.

For the variant YIVQ, the enrichment ratio is at most 0.25.

In the case of EIPY, the enrichment ratio was at most 0.25.

Turning to MNIL, the enrichment ratio was 2.73.

Regarding HFAI, the enrichment ratio is at most 0.25.

As for FVMS, the enrichment ratio was at most 0.25.

In the case of YPFY, the enrichment ratio was at most 0.25.

In the case of THMY, the enrichment ratio came out at 0.601.

With DKPN, the enrichment ratio was at most 0.25.

Regarding VASK, the enrichment ratio was at most 0.25.

Take SNGK: the enrichment ratio is at most 0.25.

In the case of VDHF, the enrichment ratio is at most 0.25.

On to HLYQ, for which the enrichment ratio is at most 0.25.

On to WFLM, for which the enrichment ratio was at most 0.25.

With QLML, the enrichment ratio is at most 0.25.

Regarding NWIG, the enrichment ratio is at most 0.25.

As for TTDN, the enrichment ratio is at most 0.25.

Take HFVD: the enrichment ratio was at most 0.25.

For EDIP, the enrichment ratio was at most 0.25.

Turning to MLES, the enrichment ratio was at most 0.25.

In the case of QFVH, the enrichment ratio is at most 0.25.

Turning to WCYF, the enrichment ratio was at most 0.25.

As for CLRD, the enrichment ratio is at most 0.25.

Consider VMLW, for which the enrichment ratio is at most 0.25.

For FGYD, the enrichment ratio is at most 0.25.

LDGY: the enrichment ratio is at most 0.25.

On to MTVG, for which the enrichment ratio is at most 0.25.

As to TNSA, the enrichment ratio was determined as 10.8.

As for MVGS, the enrichment ratio was at most 0.25.

As for SAQY, the enrichment ratio was 1.82.

Turning to TIRG, the enrichment ratio was at most 0.25.

As for DRWY, the enrichment ratio was at most 0.25.

Take MGQG: the enrichment ratio was at most 0.25.

As for TWTD, the enrichment ratio is at most 0.25.

Regarding RWVD, the enrichment ratio is at most 0.25.

As to FEDW, the enrichment ratio is at most 0.25.

Turning to QKAC, the enrichment ratio was at most 0.25.

With VWCC, the enrichment ratio is at most 0.25.

Take LFAV: the enrichment ratio is at most 0.25.

For WHWM, the enrichment ratio is at most 0.25.

With GKQN, the enrichment ratio is at most 0.25.

As to HSDA, the enrichment ratio is at most 0.25.

Regarding MCLR, the enrichment ratio was at most 0.25.

In the case of PMEG, the enrichment ratio is at most 0.25.

As for YYED, the enrichment ratio was at most 0.25.

On to KCGH, for which the enrichment ratio was at most 0.25.

Turning to TFSP, the enrichment ratio is at most 0.25.

Turning to FQAG, the enrichment ratio is at most 0.25.

As to GMKH, the enrichment ratio was at most 0.25.

As to AFLE, the enrichment ratio is at most 0.25.

Consider MMCG, for which the enrichment ratio is at most 0.25.

For EADP, the enrichment ratio was at most 0.25.

With DFGQ, the enrichment ratio is at most 0.25.

As for HSIT, the enrichment ratio was at most 0.25.

On to WHAN, for which the enrichment ratio is at most 0.25.

In the case of VGHW, the enrichment ratio is at most 0.25.

As for RGNE, the enrichment ratio is at most 0.25.

Turning to RFHD, the enrichment ratio is at most 0.25.

YHDE: the enrichment ratio is at most 0.25.

For KYVD, the enrichment ratio is at most 0.25.

Turning to ICII, the enrichment ratio is at most 0.25.

HCDK: the enrichment ratio was at most 0.25.

As for YCVF, the enrichment ratio was at most 0.25.

As for NARY, the enrichment ratio is at most 0.25.

As to HECK, the enrichment ratio is at most 0.25.
